Assay results as given in PMC8713996, “An anti-tuberculosis compound screen using a zebrafish infection model identifies an aspartyl-tRNA synthetase inhibitor” (Disease Models & Mechanisms, 2021).

Tested on: S. pneumoniae D39V
Assay type: in vivo
Details: waterborne, 1× to 400× in vitro MIC, survival 24 hpt

Row | Molecule | Survival of S. pneumoniae-infected embryos
1 | C=CC1=C(C(=O)O)N2C(=O)[C@@H](NC(=O)/C(=N\OCC(=O)O)c3csc(N)n3)[C@H]2SC1 [cefixime] | dose-dependent survival
2 | CC(C)(O/N=C(\C(=O)N[C@@H]1C(=O)N2C(C(=O)[O-])=C(C[n+]3ccccc3)CS[C@H]12)c1csc(N)n1)C(=O)O [ceftazidime] | did not increase the survival
3 | Nc1nc(/C(=C/CC(=O)O)C(=O)N[C@@H]2C(=O)N3C(C(=O)O)=CCS[C@H]23)cs1 [ceftibuten] | dose-dependent survival
4 | CO/N=C(\C(=O)N[C@@H]1C(=O)N2C(C(=O)O)=C(CSc3nc(=O)c(=O)[nH]n3C)CS[C@H]12)c1csc(N)n1 [ceftriaxone] | did not increase the survival
5 | C[C@H]1COc2c(N3CCN(C)CC3)c(F)cc3c(=O)c(C(=O)O)cn1c23 [levofloxacin] | dose-dependent survival
6 | C[C@@H](O)[C@H]1C(=O)N2C(C(=O)O)=C(S[C@@H]3CN[C@H](C(=O)N(C)C)C3)[C@H](C)[C@H]12 [meropenem] | did not increase the survival
7 | penicillin | dose-dependent survival
